From the supplement of paper PMC10369915
The list shows a part of the results. Cut-off read from the data, not from the text of the source: active = 3.2 or more and inactive = the rest. Only a few entries rise above the background.

B1: TIMP3_Y195_Y191C (peptide)
chain: GCCSWYRGWAP
B2: TMEM230_Y110_R108C (peptide)
chain: KGYCGYSYDDI
B3: TKT_Y563_Y563D (peptide)
chain: TVEDHDYEGGI
B4: TIMP3_Y195_G190C_YF (peptide)
chain: CFCSWYRGWAP
B5: TJP1_Y931 (peptide)
chain: SSPVPYLSPET
B6: TIMP3_Y195_YF (peptide)
chain: GFCSWYRGWAP
B7: TMCC2_Y473 (peptide)
chain: VSSPKYGSDDE
B8: TIMP3_Y177_S179C_YF (peptide)
chain: FGFPGYQCKHF
B9: TMEM240_Y77_T80M (peptide)
chain: DASENYFVMDS

target: SHP2 C-SH2 domain E139D; assay: enrichment score (SH2-bound / input frequency) (ratio); bacterial display of known human phosphotyrosine sites (pTyr-Var adds point mutants) read by sequencing; higher = stronger binding; tyrosines were phosphorylated by kinases first; conditions: peptide library: pTyr-Var
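Note: displayed peptides selected on beads carrying the immobilized SH2 domain, with library peptides lacking any tyrosine serving as negative controls.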

Binder | enrichment score
B1 | inactive: 2.19
B2 | inactive: 0.867
B3 | inactive: 0.542
B4 | active: 4.44
B5 | inactive: 0.806
B6 | inactive: 1.06
B7 | inactive: 0.553
B8 | inactive: 1.31
B9 | inactive: 0.898

target: SHP2 C-SH2 domain wild-type; assay: as above; conditions: peptide library: pTyr-Var

Binder | enrichment score
B1 | inactive: 2.11
B2 | inactive: 0.982
B3 | inactive: 0.555
B4 | active: 3.96
B5 | inactive: 0.736
B6 | inactive: 1.08
B7 | inactive: 0.622
B8 | inactive: 1.29
B9 | inactive: 0.666

target: SHP2 N-SH2 domain L43F; assay: as above; conditions: peptide library: pTyr-Var

Binder | enrichment score
B1 | inactive: 2.09
B2 | inactive: 0.972
B3 | inactive: 0.497
B4 | active: 4.03
B5 | inactive: 0.694
B6 | inactive: 0.736
B7 | inactive: 0.516
B8 | inactive: 1.34
B9 | inactive: 0.517

target: SHP2 N-SH2 domain T42A; assay: as above; conditions: peptide library: pTyr-Var

Binder | enrichment score
B1 | inactive: 1.84
B2 | inactive: 0.957
B3 | inactive: 0.488
B4 | inactive: 2.98
B5 | inactive: 0.644
B6 | inactive: 0.747
B7 | inactive: 0.538
B8 | inactive: 1.32
B9 | inactive: 0.586

target: SHP2 N-SH2 domain T52S; assay: as above; conditions: peptide library: pTyr-Var

Binder | enrichment score
B1 | inactive: 2.21
B2 | inactive: 0.736
B3 | inactive: 0.514
B4 | active: 3.6
B5 | inactive: 0.769
B6 | inactive: 0.83
B7 | inactive: 0.55
B8 | inactive: 1.3
B9 | inactive: 0.794

target: SHP2 N-SH2 domain wild-type; assay: as above; conditions: peptide library: pTyr-Var

Binder | enrichment score
B1 | inactive: 1.78
B2 | inactive: 0.884
B3 | inactive: 0.528
B4 | active: 4.33
B5 | inactive: 0.772
B6 | inactive: 1.26
B7 | inactive: 0.531
B8 | inactive: 1.22
B9 | inactive: 0.563
